Source: paper PMC10668032
The list shows a part of the results. At the low end of the ranking, values are background and their order means little.

biological target: SIX1 homeodomain (reference allele) (UniProt Q15475); assay: universal protein binding microarray; details: Universal all-10-mer PBM (8x60K, AMADID 030236), 300 nM GST-tagged protein, Alexa Fluor 488 anti-GST; buffer, salt, pH and temperature not stated; high values mean tight binding; most listed sequences are background and not binding sites; double strand, one strand shown

Sequence	binding signal [E-score]
AGCAACTA	-0.0228
ACGCTCAG	-0.0501
TCTTTGAA	-0.191
AATGTCCT	-0.0928
GGTTGATA	0.384
ACGCAACC	-0.168
CCGCCTCG	-0.0523
TACAGTAA	0.0323
AATTTCAA	-0.287
AGTGAACC	0.088
CTATCGAG	0.157
CTGTCAGA	0.0621
ATGAAGTA	0.019
ACCGAGTC	-0.245
CAGTCCAG	-0.125
CCTAGGAA	-0.116
AGTAATCA	0.00702
AAGCGCGA	-0.085
CACAATTA	-0.0412
AGATGAAT	0.0345
AGCATCCC	-0.0543
TCGTCAAA	0.0558
AGTCATAC	-0.102
CGCGCTCC	-0.116
CGTCACAA	-0.152

Sequence	binding signal [E-score]
CCTTTACC	-0.146
CGTCTCAA	0.286
GAACCCAA	-0.0484
AGGTTTAA	0.104
GAACGGTA	-0.05
GGTAGAGA	-0.0136
CCATTCCG	-0.212
AACGAAAT	-0.179
TAACCATA	0.0355
GTCGCCTA	-0.101
AAAGACGT	-0.334
CACGGTGG	0.154
AATATTTA	-0.0615
CACCTTAC	-0.0657
CTGACTAA	-0.221
TACGAAGA	0.0765
CAAGTCCC	-0.205
AAATTCTA	-0.243
AATGAAGC	-0.221
CATCACTC	-0.0876
GAGGTTGC	-0.321
AGAAAGAC	-0.154
CTCCGTGC	-0.126
CGTATGGC	0.0659
AAGTCTTG	-0.29

Sequence	binding signal [E-score]
AAGATAGA	-0.0145
CAAGGGCG	-0.202
ATCGTGTG	0.245
CCTCGCCG	-0.138
CGCCACCA	-0.211
CCAATTGG	0.0227
GATTACCA	-0.154
GTTCTAGA	0.0377
CTGACAAC	-0.17
CAGGTCGA	-0.0081
CTTGTCTA	-0.104
CTCCAAAC	0.0451
CTCTACCA	-0.0845
GATCCAGA	0.342
ACATTAGT	0.00788
GCGTAATA	0.0553
CTGCCGAA	-0.0253
CTTACCTA	-0.0542
GGTCAACA	-0.00404
CTGAGACC	0.261
CTAGACGA	-0.0272
CCGCACGG	0.0715
GACATTAC	-0.134
CATGTCCC	-0.193
CGGCCTAA	0.0305

Sequence	binding signal [E-score]
CAACGAAG	-0.141
ACCACTGA	-0.117
GAAACGAC	-0.0828
GGTATTCA	0.3
ATGCCCCG	0.0404
CCTAGAGA	0.071
AGGTACAG	-0.24
CATCAGCC	-0.0792
AGACCTAC	-0.0447
CCTCTAGC	-0.191
CACTTACA	-0.00562
AAGATGCG	-0.0575
AATTTTTG	-0.252
GCCATGCA	-0.0515
ACTCCAGT	-0.0049
AATGGGTG	0.0784
TCTGGCAA	-0.0452
ACATCGAG	-0.193
ATAGTTAA	-0.00717
ACTGAATA	0.0353
ACAAGCAA	-0.179
CATGATGA	0.121
GCGAGCTA	-0.0331
AAGGAAAC	-0.17
ACTAGATC	0.181

Sequence	binding signal [E-score]
AAGTTAGG	-0.119
TAGATGGA	0.289
TAGTGCAA	-0.0179
CACGGAGC	-0.133
CTAGGAAA	-0.227
CAGCCCTC	-0.175
ACCTGCGG	0.0263
AGTATCGG	0.429
GACCGATA	0.352
GAGTGGAA	-0.122
AGCCATGA	0.0263
GAAACCGA	0.117
TATATTGA	0.258
CCCATTTC	-0.0945
GAGGCTAC	-0.125
GTGGACAC	0.182
AGTCTGAG	-0.101
GACAGTAA	-0.0249
AGCCGTTA	-0.0413
AGTAACAA	-0.261
CGGCCTGA	-0.101
TAACATTA	-0.111
CAAGAGGG	0.0235
CGGGGAGC	0.0329
AGGCCCAC	-0.317

Sequence	binding signal [E-score]
ACTGCACG	0.0216
TACTTATA	0.0256
ACTCTAAC	-0.0518
TAATTCGA	-0.223
AGCGAGTG	0.027
AAGTTCTC	-0.146
CGCTAGGC	-0.274
GACTCTGC	-0.165
GCCAGTAA	0.0101
GTTAGTAA	0.0123
ATCCACGA	0.154
CCAAGTGA	-0.096
CAGTGATA	0.417
GAGTAAAA	0.0918
GACCAGTA	0.00707
TCACCGGA	0.139
ACCAAATG	-0.0273
AGAATCGG	-0.00999
CTAGGACA	-0.00357
ACAGAAGT	-0.163
AGGGATAT	0.45
CCGAACTA	-0.13
ACCCTGAT	0.3
CTGTATTC	-0.0422
GTTCTAAA	-0.03

Sequence	binding signal [E-score]
GCACTAGA	-0.162
ATGCAGAA	-0.126
CCACGACA	0.0282
CATTAAAC	-0.0375
CTGGCCAA	-0.186
ACCTACCG	-0.145
ATTAGCTG	-0.15
AAAACGAT	0.122
CGTCTCGA	0.285
TAAATGGA	0.104
AGGCCGGA	-0.0326
ACGGATAC	0.454
GCATGCAA	0.113
GGCGTAAA	-0.223
ATACAGCC	0.225
GAAGTAAC	-0.171
CCGACAAA	-0.209
AGGGTCAG	-0.0947
GAAGCCAC	-0.119
AAACGGTT	-0.154
GTATGCGA	0.225
CAGTAGCC	-0.263
CTACGACA	0.0973
GGGGAAAC	-0.0202
GCGCCCAA	-0.154

Sequence	binding signal [E-score]
CCTGGTTC	-0.0644
ACCACGTC	0.0137
CGTCAGGC	-0.243
ACTTCTGG	-0.113
CAACGCTC	-0.172
ATTTTGAG	-0.0176
GAAAACCC	-0.098
ACCTAACC	-0.00816
CTTTTGTA	-0.116
CAGAATAC	0.221
CAAAGTGG	-0.0695
TCACCCGA	0.157
CTCGAAAA	-0.2
ACAATAGG	-0.183
GACAGCAC	-0.123
CTGGGTTC	0.0748
CCCGACCC	0.122
CTGCTGGC	-0.183
GAGCGCAA	-0.268
GTTATAGA	0.0174
CTAAATCA	-0.0877
AGACAGTG	-0.0473
ACCGCCCC	0.216
GAACGTGA	-0.149
ATCAAATC	0.237

Sequence	binding signal [E-score]
GCCATGCC	-0.182
GCCGGACC	-0.133
AGGCAGAG	-0.197
ACATCAAC	-0.0474
AACAGGAT	0.179
ATACAGGA	0.228
CGGCCTTC	-0.246
TATCACCA	0.42
ACTGTGGG	-0.0264
CAAAGTCA	-0.354
AATGAACC	-0.0828
GTCTTTTA	-0.137
CACCCGCG	0.125
TCTAAAAA	-0.181
AGGAAACG	-0.14
ATTATGAG	0.19
GATCTGCC	0.334
ACAAGGCT	-0.256
CCGTGACC	0.0385
GTTTTTGA	0.0525
AATCGGGC	-0.0215
ACATGCCT	-0.106
CCCATCGC	0.085
AAGTCCGA	-0.0759
AGTGGGTG	0.184

Sequence	binding signal [E-score]
TTGTGAAA	-0.148
CGGAGGCA	-0.0607
TGCAAACA	-0.203
AAATCTAG	-0.0948
ATCCCATG	0.311
ACTTCGAT	0.0937
AAACGTGG	-0.224
TAGGCAGA	0.000455
TACAAAAA	-0.144
CCGATCTC	0.316
ACTCCATA	0.0147
TTCGACAA	-0.11
AGGAAGGC	-0.147
AGGATACT	0.364
ATGACGCC	0.0684
ACACGACC	-0.103
CCTCGGCG	0.0609
ATTACTTC	-0.0625
AATCCCGC	0.073
ACCCCACC	0.275
AATAAGCG	-0.185
AGCTGGAA	0.00532
TTCTCAAA	0.122
ACCACTTC	-0.0577
CACTAAAC	0.0181

Sequence	binding signal [E-score]
CCTCTTGC	-0.195
GCAGAACA	-0.0357
CCGATCTA	0.262
ATAACAGG	-0.102
CAGGCTTC	-0.111
ATATTCTC	0.269
AGGCCAAA	-0.316
ATCCCTGC	0.233
AAGGACAA	-0.239
AACTTCGA	-0.195
ATTACTAC	-0.0661
ATCTCAGC	0.21
CATAACCG	-0.033
GCTTGGAC	-0.0873
CTCTAGCC	-0.068
CGTGCTTA	-0.14
CTGCCCCA	-0.00338
ACATCCGA	0.0707
TGGCAACA	-0.117
AGTGTAAG	-0.00617
ACGATGTC	-0.149
CGGGAAAC	0.0256
ACAAATCA	-0.103
CTTTCATA	-0.143
CTTTGGCC	-0.205

Sequence	binding signal [E-score]
CGATCTGC	0.209
ATGTGCAA	-0.109
CCGCTACC	-0.0386
ATCCAGCG	0.165
ACACGGGT	0.23
AGGATGAC	0.0837
TGCGCGAA	-0.124
AGGAGAAG	0.127
CAGTTACG	-0.249
CGACGCTA	-0.0888
CTATGCTA	0.0235
GCAAAAGC	-0.159
GGTTCATA	0.154
CAGAGATC	0.296
GAAAATCC	-0.113
CTCCACGC	-0.165
CCGGAAAC	0.0143
CGGAGTCC	-0.202
ACGTTGCC	-0.253
AGATACGA	0.279
AGCCCGTC	-0.182
CATATTGA	0.178
ATGCATGA	0.162
ACACCGCG	0.283
CATGACGC	-0.0877

Sequence	binding signal [E-score]
TACAGATA	0.267
CGAGAAGC	0.0719
CAGACCGC	-0.12
ACTATTTA	-0.0352
ACTATGCT	-0.053
CCTGCCGA	0.0432
ATTGTGTC	0.0154
AAGGCGAA	-0.282
ACCACACC	0.174
CCCGTGTC	0.255
CCCCAGTC	-0.0618
TATCTTGA	0.252
AGTCGCTG	-0.277
CAGCTGCA	-0.168
CCGACCAC	-0.0149
GTATAGAA	0.215
CTCCCTCA	0.0199
ATCGCATG	0.247
TCTACTCA	0.118
AAAAAGGT	-0.108
AGGTTCAC	-0.141
CGGAATAA	-0.143
CTTGGCCC	-0.193
ACGTTGCG	-0.209
AGTGTGCC	-0.152

Sequence	binding signal [E-score]
GGCTCCAA	-0.244
GTTAGAAC	-0.087
CAGTGAAG	-0.108
CCCGCTAA	0.0135
AAAGCCGG	-0.119
GCCCCTCC	0.158
ATCGTAAT	0.178
AGGCACGA	-0.166
CCGTAAGA	-0.0735
AGCGTACG	-0.282
GTACCAAC	-0.185
AATGCAAC	-0.138
CGTCATAC	0.094
AGCGACAT	-0.0929
AAGTATTG	0.157
AAATTGCG	-0.101
TCCAAACA	-0.0916
CGTTCCAA	-0.199
AATACTAT	0.278
